Data published in the supplement of paper PMC12217912.
This is one part of the list. Sequences were assembled here from the parent chain. Inactive controls read about 0.05.

B1: TEV protease; numbered along this chain (parent)
chain: MGESLFKGPRDYNPISSSICHLTNESDGHTTSLYGIGFGPFIITNKHLFRRNNGTLVVQSLHGVFKVKDTTTLQQHLVDGRDMIIIRMPKDFPPFPQKLKFREPQREERICLVTTNFQTKSMSSMVSDTSCTFPSGDGIFWKHWIQTKDGQCGSPLVSTRDGFIVGIHSASNFTNTNNYFTSVPKNFMELLTNQEAQQWVSGWRLNADSVLWGGHKVFMVKPEEPFQPVKEATQL

Variants of: B1
Test: raw area under fraction-flipped curve 0-4 h after induction (AUC4h, not background-subtracted), DNA-recorder readout of cleavage of the substrate (dimensionless); higher = more cleavage of the substrate by the protease variant
Conditions: temperature: 34 °C; time window: 0-4 h after rhamnose induction
Procedure: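 In vivo DNA recorder in E. coli TOP10(DE3) ΔrhaA at 34 °C. Each TEVp single-site mutant (parent TEVp 0) is paired with a single-site variant of the 7-mer TEVs (canonical ENLYFQ|S). The substrate sits between flexible linkers in a Bxb1-sfGFP-TEVs-SsrA fusion, so cleavage stabilises Bxb1 and speeds flipping of a recombination array, read by NGS. The value is the raw area under the fraction-flipped curve over 0-4 h after rhamnose induction (AUC4h), with ≥20 reads per time point. It is not background-subtracted; inactive controls average about 0.047.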
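Note: Bxb1 expression induced with 0.2% (w/v) L-rhamnose at OD600 near 0.5, cultures sampled hourly, flipped fraction per protease–substrate barcode pair counted by paired-end Illumina sequencing.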

## MGESLFKGPRDYEPISSSICHLTNESDGHTTSLYGIGFGPFIITNKHLFRRNNGTLVVQSLHGVFKVKDTTTLQQHLVDGRDMIIIRMPKDFPPFPQKLKFREPQREERICLVTTNFQTKSMSSMVSDTSCTFPSGDGIFWKHWIQTKDGQCGSPLVSTRDGFIVGIHSASNFTNTNNYFTSVPKNFMELLTNQEAQQWVSGWRLNADSVLWGGHKVFMVKPEEPFQPVKEATQL [N13E]
  area with substrate ENAYFQS: 0.0601
  area with substrate ENCYFQS: 0.0835
  area with substrate ENDYFQS: 0.0604
  area with substrate ENEYFQS: 0.0522
  area with substrate ENFYFQS: 0.0622
  area with substrate ENGYFQS: 0.0603
  area with substrate ENIYFQS: 0.0823
  area with substrate ENKYFQS: 0.071
  area with substrate ENMYFQS: 0.0745
  area with substrate ENNYFQS: 0.0534
  area with substrate ENPYFQS: 0.0703
  area with substrate ENQYFQS: 0.0562
  area with substrate ENRYFQS: 0.0579
  area with substrate ENSYFQS: 0.07
  area with substrate ENVYFQS: 0.0736
  area with substrate ENWYFQS: 0.0575

## MGESLFKGPRDYIPISSSICHLTNESDGHTTSLYGIGFGPFIITNKHLFRRNNGTLVVQSLHGVFKVKDTTTLQQHLVDGRDMIIIRMPKDFPPFPQKLKFREPQREERICLVTTNFQTKSMSSMVSDTSCTFPSGDGIFWKHWIQTKDGQCGSPLVSTRDGFIVGIHSASNFTNTNNYFTSVPKNFMELLTNQEAQQWVSGWRLNADSVLWGGHKVFMVKPEEPFQPVKEATQL [N13I]
  area with substrate ENAYFQS: 0.0489
  area with substrate ENCYFQS: 0.0664
  area with substrate ENDYFQS: 0.0558
  area with substrate ENEYFQS: 0.0574
  area with substrate ENFYFQS: 0.0634
  area with substrate ENGYFQS: 0.06
  area with substrate ENHYFQS: 0.0721
  area with substrate ENIYFQS: 0.0503
  area with substrate ENKYFQS: 0.0487
  area with substrate ENMYFQS: 0.0789
  area with substrate ENNYFQS: 0.0536
  area with substrate ENPYFQS: 0.0665
  area with substrate ENQYFQS: 0.0706
  area with substrate ENRYFQS: 0.0559
  area with substrate ENSYFQS: 0.0604
  area with substrate ENVYFQS: 0.0716
  area with substrate ENWYFQS: 0.068
  area with substrate ENYYFQS: 0.0554

## MGESLFKGPRDYPPISSSICHLTNESDGHTTSLYGIGFGPFIITNKHLFRRNNGTLVVQSLHGVFKVKDTTTLQQHLVDGRDMIIIRMPKDFPPFPQKLKFREPQREERICLVTTNFQTKSMSSMVSDTSCTFPSGDGIFWKHWIQTKDGQCGSPLVSTRDGFIVGIHSASNFTNTNNYFTSVPKNFMELLTNQEAQQWVSGWRLNADSVLWGGHKVFMVKPEEPFQPVKEATQL [N13P]
  area with substrate ENAYFQS: 0.0636
  area with substrate ENCYFQS: 0.057
  area with substrate ENDYFQS: 0.0514
  area with substrate ENEYFQS: 0.0628
  area with substrate ENFYFQS: 0.0594
  area with substrate ENGYFQS: 0.0649
  area with substrate ENHYFQS: 0.0604
  area with substrate ENMYFQS: 0.0647
  area with substrate ENNYFQS: 0.0608
  area with substrate ENPYFQS: 0.0612
  area with substrate ENQYFQS: 0.058
  area with substrate ENRYFQS: 0.0582
  area with substrate ENSYFQS: 0.0611
  area with substrate ENTYFQS: 0.0668
  area with substrate ENVYFQS: 0.0745
  area with substrate ENWYFQS: 0.0382
  area with substrate ENYYFQS: 0.0246

## MGESLFKGPRDYNAISSSICHLTNESDGHTTSLYGIGFGPFIITNKHLFRRNNGTLVVQSLHGVFKVKDTTTLQQHLVDGRDMIIIRMPKDFPPFPQKLKFREPQREERICLVTTNFQTKSMSSMVSDTSCTFPSGDGIFWKHWIQTKDGQCGSPLVSTRDGFIVGIHSASNFTNTNNYFTSVPKNFMELLTNQEAQQWVSGWRLNADSVLWGGHKVFMVKPEEPFQPVKEATQL [P14A]
  area with substrate ENAYFQS: 0.0721
  area with substrate ENCYFQS: 0.0686
  area with substrate ENDYFQS: 0.0533
  area with substrate ENEYFQS: 0.0247
  area with substrate ENHYFQS: 0.0515
  area with substrate ENKYFQS: 0.0574
  area with substrate ENMYFQS: 0.124
  area with substrate ENNYFQS: 0.0497
  area with substrate ENPYFQS: 0.0619
  area with substrate ENQYFQS: 0.0664
  area with substrate ENRYFQS: 0.061
  area with substrate ENTYFQS: 0.0094
  area with substrate ENVYFQS: 0.0844
  area with substrate ENYYFQS: 0.046

## MGESLFKGPRDYNMISSSICHLTNESDGHTTSLYGIGFGPFIITNKHLFRRNNGTLVVQSLHGVFKVKDTTTLQQHLVDGRDMIIIRMPKDFPPFPQKLKFREPQREERICLVTTNFQTKSMSSMVSDTSCTFPSGDGIFWKHWIQTKDGQCGSPLVSTRDGFIVGIHSASNFTNTNNYFTSVPKNFMELLTNQEAQQWVSGWRLNADSVLWGGHKVFMVKPEEPFQPVKEATQL [P14M]
  area with substrate ENAYFQS: 0.0565
  area with substrate ENDYFQS: 0.0588
  area with substrate ENEYFQS: 0.032
  area with substrate ENFYFQS: 0.0733
  area with substrate ENGYFQS: 0.0668
  area with substrate ENHYFQS: 0.0612
  area with substrate ENKYFQS: 0.0571
  area with substrate ENMYFQS: 0.0887
  area with substrate ENQYFQS: 0.0655
  area with substrate ENRYFQS: 0.0608
  area with substrate ENSYFQS: 0.0632
  area with substrate ENVYFQS: 0.072
  area with substrate ENWYFQS: 0.0542
  area with substrate ENYYFQS: 0.0582

## MGESLFKGPRDYNTISSSICHLTNESDGHTTSLYGIGFGPFIITNKHLFRRNNGTLVVQSLHGVFKVKDTTTLQQHLVDGRDMIIIRMPKDFPPFPQKLKFREPQREERICLVTTNFQTKSMSSMVSDTSCTFPSGDGIFWKHWIQTKDGQCGSPLVSTRDGFIVGIHSASNFTNTNNYFTSVPKNFMELLTNQEAQQWVSGWRLNADSVLWGGHKVFMVKPEEPFQPVKEATQL [P14T]
  area with substrate ENAYFQS: 0.0507
  area with substrate ENCYFQS: 0.0807
  area with substrate ENDYFQS: 0.0599
  area with substrate ENEYFQS: 0.0622
  area with substrate ENFYFQS: 0.0685
  area with substrate ENGYFQS: 0.0651
  area with substrate ENHYFQS: 0.0692
  area with substrate ENIYFQS: 0.122
  area with substrate ENKYFQS: 0.0464
  area with substrate ENMYFQS: 0.0954
  area with substrate ENNYFQS: 0.0637
  area with substrate ENPYFQS: 0.042
  area with substrate ENQYFQS: 0.0479
  area with substrate ENRYFQS: 0.0512
  area with substrate ENSYFQS: 0.0569
  area with substrate ENVYFQS: 0.064

## MGESLFKGPRDYNYISSSICHLTNESDGHTTSLYGIGFGPFIITNKHLFRRNNGTLVVQSLHGVFKVKDTTTLQQHLVDGRDMIIIRMPKDFPPFPQKLKFREPQREERICLVTTNFQTKSMSSMVSDTSCTFPSGDGIFWKHWIQTKDGQCGSPLVSTRDGFIVGIHSASNFTNTNNYFTSVPKNFMELLTNQEAQQWVSGWRLNADSVLWGGHKVFMVKPEEPFQPVKEATQL [P14Y]
  area with substrate ENAYFQS: 0.0751
  area with substrate ENDYFQS: 0.063
  area with substrate ENEYFQS: 0.066
  area with substrate ENFYFQS: 0.0623
  area with substrate ENHYFQS: 0.0569
  area with substrate ENKYFQS: 0.0688
  area with substrate ENMYFQS: 0.0695
  area with substrate ENNYFQS: 0.0665
  area with substrate ENPYFQS: 0.0804
  area with substrate ENQYFQS: 0.0639
  area with substrate ENRYFQS: 0.0498
  area with substrate ENSYFQS: 0.0485
  area with substrate ENTYFQS: 0.0566
  area with substrate ENYYFQS: 0.0616

## MGESLFKGPRDYNPDSSSICHLTNESDGHTTSLYGIGFGPFIITNKHLFRRNNGTLVVQSLHGVFKVKDTTTLQQHLVDGRDMIIIRMPKDFPPFPQKLKFREPQREERICLVTTNFQTKSMSSMVSDTSCTFPSGDGIFWKHWIQTKDGQCGSPLVSTRDGFIVGIHSASNFTNTNNYFTSVPKNFMELLTNQEAQQWVSGWRLNADSVLWGGHKVFMVKPEEPFQPVKEATQL [I15D]
  area with substrate ENAYFQS: 0.0492
  area with substrate ENCYFQS: 0.0434
  area with substrate ENDYFQS: 0.047
  area with substrate ENEYFQS: 0.0442
  area with substrate ENFYFQS: 0.0546
  area with substrate ENGYFQS: 0.0514
  area with substrate ENHYFQS: 0.0436
  area with substrate ENIYFQS: 0.0833
  area with substrate ENMYFQS: 0.0633
  area with substrate ENNYFQS: 0.0488
  area with substrate ENPYFQS: 0.0545
  area with substrate ENQYFQS: 0.0558
  area with substrate ENRYFQS: 0.0474
  area with substrate ENSYFQS: 0.0527
  area with substrate ENTYFQS: 0.0473
  area with substrate ENVYFQS: 0.0551
  area with substrate ENWYFQS: 0.0975
  area with substrate ENYYFQS: 0.0409
